Data: PubChem BioAssay AID686979 (National Center for Advancing Translational Sciences (NCATS), 2013)
Out of some 420,000 compounds screened, about 50,000 (12%) were called active. Inconclusive means that the source gave no clear call. Such entries were picked first, then a sample of the others. Calls come from the whole dose curve; as a rule, active = well fitted inhibition curve with a large enough effect; inconclusive = small, poorly fitted or top-dose-only effect; inactive = flat fitted curve, though single readings scatter. No potency is given beside an inconclusive call; the fits are too rough.

Assay: qHTS for Inhibitors of human tyrosyl-DNA phosphodiesterase 1 (TDP1): qHTS in cells in presence of CPT; note: nearly all actives have a fitted effect of over 55% in size
Conditions: chicken DT40 Tdp1-/-;hTDP1 cells + 20 nM CPT, ATP luminescence, 48 h; activity change, negative = growth inhibition: at 46.2 µM (top of the series)
Summary of the method: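 Chicken DT40 Tdp1-/- cells stably complemented with human TDP1 were seeded at 400 cells/well in medium containing 20 nM camptothecin, exposed to pin-transferred compounds, and grown at 37 °C for at least 48 hr. Viability was read as ATP luminescence.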
% is set by controls: 0 for no effect and ±100 for the full control effect; potency is the fitted concentration of half-maximal effect; tags give direction and shape of the fitted curve.

Structure (SMILES) | Potency | activity change, negative = growth inhibition
Nc1nnnn1/N=C/c1cccc(OCc2ccccc2Cl)c1 | active: 25.9 µM | –
N#Cc1nn(-c2ccccc2)nc1N1CCCCC1 | – | inactive: -3.29%
CC(=O)N1CCC(C(=O)Nc2ccc(S(=O)(=O)N3CCCC(C)C3)cc2)CC1 (stereo unspecified) | – | inconclusive: -32.9% [inhibitor]
Cc1cc2nn(-c3ccc(F)cc3)nc2cc1NC(=O)c1cccc2c(Cl)cccc12 | active: 2.91 µM | –
COc1ccc(CCNC(=S)N2CCC(C(=O)c3ccc(F)cc3)CC2)cc1OC | inconclusive [inhibitor, single point] | –
O=C(O)c1ccc(NS(=O)(=O)c2cc(C(=O)O)ccc2Br)cc1 | – | inactive: 3.26%
Cc1nn(CC(=O)N(C)C2CCC(C)CC2)c(C)c1S(=O)(=O)N(C)C (stereo unspecified) | inconclusive [inhibitor, partial curve, poor fit] | –
CCOc1ccc(NC(=O)c2ccc(F)cc2F)cc1 | – | inactive: -19%
Cc1ccc(CN2CC(=O)N3[C@H]4c5cc(C)ccc5OC[C@@H]4[C@H](c4ccccc4)[C@]3(C)C2=O)cc1 | inconclusive [inhibitor, single point] | –
CCOC(=O)c1ccc2c(c1)N(Cc1ccc(F)cc1Cl)C(=O)c1ccccc1S2(=O)=O | inconclusive [inhibitor, partial curve] | –
O=C(CCNC(=O)c1ccc(Cl)cc1)NNC(=O)c1ccc(F)cc1 | – | inactive: 12%
Cc1ccc(-c2cc(C(=O)N3CCOCC3)c3ccccc3n2)o1 | inconclusive [inhibitor, single point] | –
CC(O)[C@H]1CN=C(N)N1CCCCC1CCCCC1 (stereo partly specified) | active: 9.2 µM | –
NC(=O)COC(=O)c1ccccc1Nc1ccc(SC(F)F)cc1 | – | inactive: -18.7%
COc1ccc(-n2cc(-c3ccccc3)c3c(Nc4ccc(OC)c(OC)c4)ncnc32)cc1 | inconclusive [inhibitor, single point] | –
COC(=O)c1ccc(Oc2c(C)oc3cc(OCc4cnn(-c5ccccc5)c4)ccc3c2=O)cc1 | – | inconclusive: -31.6% [inhibitor]
CCn1c(C)c(C)c2cc(C(=O)NCc3ccc(F)cc3)ccc21 | inconclusive [inhibitor, single point] | –
Cc1ccc(C)n1-c1ccc(C(=O)NN)cc1 | active: 7.31 µM | –
CCC(C)(C)C1CCC2(CC1)NC(=O)N(CC(=O)Nc1cc(C(F)(F)F)ccc1N1CCOCC1)C2=O (stereo unspecified) | inconclusive [inhibitor, single point] | –
FC(F)Sc1ccc(NC2=NCCCCC2)cc1 | – | inactive: 1.89%
COc1cc(OC)c(NC(=O)Nc2cccc(OCc3cc(=O)n4ccccc4n3)c2)cc1Cl | active: 18.4 µM | –
CCN(CC)CC#CCC(O)(c1ccccc1)c1ccc(Br)cc1 (stereo unspecified) | inconclusive [inhibitor, partial curve] | –
COc1cc(NC(=O)c2ccccc2)c(OC)cc1NC(=O)Cc1ccc(Br)cc1 | inconclusive [inhibitor, single point] | –

Structure (SMILES) | Potency | activity change, negative = growth inhibition
O=C(C[C@@H]1C/C=C\C[C@@H](Cc2ccc(F)cc2)C(=O)OC[C@@H](Cc2ccccc2)NC1=O)N[C@H](CO)Cc1ccccc1 | inconclusive [inhibitor, single point] | –
CNC(=S)N1N=C(c2ccccc2)CC1c1ccccc1Cl (stereo unspecified) | inconclusive [inhibitor, single point] | –
CN(C)S(=O)(=O)n1cnc([C@@H]2[C@@H]3C(=O)OC[C@@H]3C[C@]23N=CN(Cc2ccccc2)C3=O)c1 | – | inactive: 3.01%
CCOC(=O)CC(=O)CSc1nc2ccsc2c(=O)n1Cc1ccccc1 | inconclusive [inhibitor, single point] | –
COc1ccc(Cl)cc1-c1cc(C(=O)NCc2ccccc2)[nH]n1 | active: 16.4 µM | –
CCC(=O)N1CCc2cc(Br)cc(S(=O)(=O)N3CCN(c4ccccc4OC)CC3)c21 | inconclusive [inhibitor, single point] | –
CC(=O)N1c2ccc(S(=O)(=O)N3CCC(C(=O)N4CCN(c5ccccc5F)CC4)CC3)cc2CC1C (stereo unspecified) | active: 25.9 µM | –
Cc1noc(-c2ccc(NC(C)c3ccccc3)c([N+](=O)[O-])c2)n1 (stereo unspecified) | active: 16.4 µM | –
CCc1ccc2c(c1)C(c1ccc([N+](=O)[O-])cc1)=NNC(c1ccc(C)cc1)=N2 | – | inactive: -21%
CSc1nnc(Cn2c(=O)sc3ccccc32)n1-c1cccc(Cl)c1 | inconclusive [inhibitor, single point] | –
Cc1cccc(NC(=O)CS(=O)CC(=O)Nc2cnc3ccccc3c2)c1C (stereo unspecified) | – | inactive: 1.3%
COc1ccc(C(CCNCc2ccccc2F)c2ccc(F)cc2)cc1 (stereo unspecified) | active: 16.4 µM | –
COCCCN1C(=O)C(CC(=O)NCc2ccco2)CC(C(=O)N(C)C)=C1C (stereo unspecified) | – | inactive: -6.39%
CCC1(C)Cc2ccccc2-c2nc(NCCCO)[nH]c(=O)c21 (stereo unspecified) | – | inactive: -27.2%
Cc1ccc(CNC(=O)c2nc(SCc3ccccc3C)ncc2Cl)cc1 | inconclusive [inhibitor, single point] | –
O=C(Nc1ncc([N+](=O)[O-])s1)c1ccc2c(c1)OCO2 | inconclusive [inhibitor, single point] | –
Cc1nc(SCc2cccc(Oc3ccccc3)c2)n[nH]1 | inconclusive [inhibitor, single point] | –
Cc1cc(=O)[nH]c(SCC(=O)c2ccc(F)c(C)c2)n1 | – | inactive: -30.4%
CC1(OC(=O)CCc2ccccc2)C(=O)C=C2C=C(c3ccc(C#N)cc3)N(Cc3ccccc3)C=C2C1=O (stereo unspecified) | active: 18.4 µM | –
O=C1OC(c2ccccc2)(c2ccccc2)c2ccccc21 | inconclusive [inhibitor, single point] | –
CCSc1nc2cc(OC)c(OC)cc2c(=O)n1CCc1ccccc1 | active: 16.4 µM | –
Cc1ccc(N2CC(C(=O)N3CCC(c4nc5ccccc5[nH]4)CC3)CC2=O)cc1C (stereo unspecified) | inconclusive [inhibitor, single point] | –
Cn1c(=O)[nH]c(=O)c2c1nc(CN1CCN(c3cccc(Cl)c3)CC1)n2Cc1ccccc1Cl | inconclusive [inhibitor, single point] | –
